Measured values taken from the supplement of paper PMC12217912.
This is one part of the list. The full chains were built here from the parent and the listed change. Values near 0.05 are background.

B1: TEV protease; numbered along this chain (parent)
chain: MGESLFKGPRDYNPISSSICHLTNESDGHTTSLYGIGFGPFIITNKHLFRRNNGTLVVQSLHGVFKVKDTTTLQQHLVDGRDMIIIRMPKDFPPFPQKLKFREPQREERICLVTTNFQTKSMSSMVSDTSCTFPSGDGIFWKHWIQTKDGQCGSPLVSTRDGFIVGIHSASNFTNTNNYFTSVPKNFMELLTNQEAQQWVSGWRLNADSVLWGGHKVFMVKPEEPFQPVKEATQL

Variants of: B1
Assay: raw area under fraction-flipped curve 0-4 h after induction (AUC4h, not background-subtracted), DNA-recorder readout of cleavage of the substrate (dimensionless); higher = more cleavage of the substrate by the protease variant
Details: temperature: 34 °C; time window: 0-4 h after rhamnose induction
Experimental: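 In vivo DNA recorder in E. coli TOP10(DE3) ΔrhaA at 34 °C. Each TEVp single-site mutant (parent TEVp 0) is paired with a single-site variant of the 7-mer TEVs (canonical ENLYFQ|S). The substrate sits between flexible linkers in a Bxb1-sfGFP-TEVs-SsrA fusion, so cleavage stabilises Bxb1 and speeds flipping of a recombination array, read by NGS. The value is the raw area under the fraction-flipped curve over 0-4 h after rhamnose induction (AUC4h), with ≥20 reads per time point. It is not background-subtracted; inactive controls average about 0.047.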
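Further: Bxb1 expression induced with 0.2% (w/v) L-rhamnose at OD600 near 0.5, cultures sampled hourly, flipped fraction per protease–substrate barcode pair counted by paired-end Illumina sequencing.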

Variant	area with substrate ENAYFQS	area with substrate ENDYFQS	area with substrate ENEYFQS	area with substrate ENFYFQS	area with substrate ENHYFQS	area with substrate ENIYFQS	area with substrate ENKYFQS	area with substrate ENNYFQS	area with substrate ENPYFQS	area with substrate ENQYFQS	area with substrate ENRYFQS	area with substrate ENSYFQS	area with substrate ENVYFQS	area with substrate ENYYFQS	area with substrate ENCYFQS	area with substrate ENGYFQS	area with substrate ENMYFQS	area with substrate ENTYFQS	area with substrate ENWYFQS
L191H	0.0479	0.0572	0.0743	0.0557	0.0315	0.0386	0.0522	0.0622	0.0654	0.0644	0.0523	0.0781	0.04	0.0719					
L191N	0.0535	0.0418	0.0589	0.0479			0.049		0.0556		0.0522	0.0596	0.0595		0.0521	0.0514	0.0514	0.059	0.0482
L191R	0.0579	0.0451	0.0644	0.0652	0.0572	0.0493	0.0635	0.0504		0.0674		0.0621	0.055	0.0884		0.0401			0.0229
N193H	0.0625	0.0639		0.0662	0.0592			0.0695					0.0775				0.0535	0.0905	
Q194D	0.0551	0.0686	0.0766				0.0408		0.0598	0.0505				0.053	0.0532	0.0591		0.0634	
E195I	0.054	0.057	0.0539	0.0597				0.0492				0.0693			0.0496		0.0669	0.0593	
E195Q	0.0716						0.0672	0.0553		0.0743	0.059	0.0399	0.083		0.0867		0.0984		
E195W	0.0784	0.0565				0.079	0.0781	0.091		0.0576		0.0692						0.0565	
Q197H	0.0797	0.0559					0.083			0.0618			0.0698		0.0689				
Q197L	0.0641	0.0745	0.0643	0.0782			0.0682	0.0515	0.0502	0.0566		0.0628	0.0878			0.0499	0.0942	0.0669	
W199A	0.074	0.0564						0.0624			0.0706	0.0764	0.0538						
W199K	0.0546	0.0583	0.0693		0.0616	0.0667	0.0451		0.0637	0.0664	0.0495				0.0556	0.0678	0.0813		
W199T	0.0567	0.0682	0.0553		0.0473	0.0641	0.0384	0.058	0.0626	0.0603	0.0664	0.0609			0.0601				0.0661
S201T	0.0603	0.0379				0.119		0.0537					0.0951		0.0704	0.0572	0.0986	0.0685	
W203F	0.0582	0.0531	0.035	0.081				0.0541	0.0571	0.0547		0.0744					0.0637		
W203H	0.0544	0.0763	0.0575	0.0566	0.0572	0.0491				0.0565	0.0644	0.0569	0.0686	0.0637		0.0733	0.0999	0.0673	0.0461
W203T	0.0586	0.0619	0.0513	0.0644	0.0628	0.0744	0.0562			0.0671	0.0472	0.0644	0.0571		0.0457	0.0621	0.057		
R204Y	0.0615	0.055	0.0687	0.0505	0.0562	0.123	0.0738	0.0584	0.0702	0.0672	0.0611	0.0549	0.0842	0.0604	0.0861	0.0553		0.05	0.0659
L205C	0.0673	0.0615		0.0539			0.0448			0.0692		0.0705			0.0691				
L205P	0.045	0.0593	0.0589					0.068	0.0573	0.0546	0.0463	0.0591	0.0567		0.0644	0.0573	0.0575		
L205Q	0.0571					0.0948									0.0771				
N206D	0.0539	0.0654	0.0623	0.0645	0.0501	0.157	0.0592	0.0522	0.051	0.0332	0.0686	0.146	0.0882		0.0136	0.0702		0.0687	0.0464
N206V	0.0622	0.0527	0.0651		0.0791					0.0547	0.0645	0.0473			0.0571			0.0572	0.0421
N206W	0.0562	0.0605	0.0729	0.0625	0.0587		0.0719		0.0569	0.056				0.0696	0.0695	0.057			
S209M	0.0534	0.0665		0.084	0.0689			0.0935	0.0592	0.0597				0.0673		0.0647	0.0934	0.0682	
S209Q	0.0529	0.0525	0.0662	0.0606	0.0667		0.053	0.0493		0.0551	0.0518	0.0641	0.0668	0.0428	0.0678		0.0902	0.0727	
V210W	0.0788	0.0524	0.0555	0.0573	0.0726		0.0589	0.0531	0.0609	0.0493	0.047				0.055	0.0551		0.0731	0.0542
L211E	0.0415	0.0514	0.0553	0.0697	0.0604	0.158	0.0682	0.0577	0.0445	0.0677	0.075	0.0637	0.0901	0.0745	0.0684	0.0786		0.0547	0.0557
L211G	0.052	0.0629	0.0648	0.0569				0.0578	0.0759	0.0666	0.0471								
W212H	0.1	0.0587	0.0515				0.0601	0.06		0.0566		0.0534			0.068	0.0545		0.0447	
